# Measured values reported in the supplement of paper PMC9446081.
# The campaign covered roughly 39,000 compounds. About 220 (0.56%) showed activity. Some of the results follow.
# System: Escherichia coli K-12 BW25113
# Assay: relative growth (OD600 normalised to plate interquartile mean) (fraction); higher = less growth inhibition, active = 0.2 or less
# Conditions: 50 µM; LB; incubation time: overnight (16-24 h)
# 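Also: static incubation at 37 °C against the wild-type strain, values averaged over two biological replicates.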
row,SMILES,relative growth
1,O=C(C[C@@H]1C=C[C@H](NC(=O)c2cccnc2)[C@@H](CO)O1)NCc1ccncn1,inactive: 1.01
2,CNC[C@H]1OCCCC[C@H](C)Oc2ccc(NC(=O)Nc3cccc4ccccc34)cc2C(=O)N([C@@H](C)CO)C[C@@H]1C,inactive: 0.992
3,COc1ccccc1-c1ccc2c(c1)O[C@H](CN(C)C(=O)c1ccncc1)[C@H](C)CN([C@@H](C)CO)S2(=O)=O,inactive: 0.981
4,C[C@@H]1CN([C@H](C)CO)C(=O)c2cc(C#Cc3ccccc3)cnc2O[C@H]1CN(C)C(=O)CCN1CCCCC1,inactive: 0.971
5,C[C@@H]1CCCCO[C@H](CN(C)Cc2ccc(C(F)(F)F)cc2)[C@H](C)CN([C@H](C)CO)C(=O)c2cc(NC(=O)CCC(F)(F)F)ccc2O1,inactive: 0.99
6,Cc1ccc(S(=O)(=O)N(C)C[C@H]2OCCCC[C@@H](C)Oc3ccc(NC(=O)Nc4cccc5ccccc45)cc3C(=O)N([C@H](C)CO)C[C@@H]2C)cc1,inactive: 1.01
7,C/C=C/c1ccc2c(c1)O[C@H](CN(C)S(=O)(=O)c1ccccc1OC)[C@@H](C)CN([C@H](C)CO)S2(=O)=O,inactive: 1.02
8,C[C@@H]1CCCCO[C@H](CN(C)S(C)(=O)=O)[C@H](C)CN([C@@H](C)CO)C(=O)c2cc(NS(=O)(=O)c3ccc(F)cc3)ccc2O1,inactive: 1
9,COc1ccc(C#Cc2ccc3c(c2)O[C@H](CN(C)S(=O)(=O)c2ccccc2F)[C@@H](C)CN([C@H](C)CO)S3(=O)=O)cc1,inactive: 1.03
10,C[C@H](CO)N1C[C@H](C)[C@H](CN(C)S(=O)(=O)c2ccccc2)OCCCC[C@H](C)Oc2ccc(NC(=O)C3CCCCC3)cc2C1=O,inactive: 0.999
11,O=C1C2C=CC([C@H]3[C@@H]2C=CC(=O)[C@]32CO2)[C@@]12CO2 (stereo partly drawn),inactive: 1.02
12,C1CN(C2CCSCC2)CCN1,inactive: 0.996
13,COc1cccc(S(=O)(=O)N[C@H]2C=C[C@@H](CC(=O)NC3CCC3)O[C@H]2CO)c1,inactive: 1.01
14,O=C(C[C@@H]1CC[C@H](NC(=O)Nc2ccc3c(c2)OCO3)[C@@H](CO)O1)NCCCN1CCOCC1,inactive: 1.01
15,C[C@@H]1CCCCO[C@@H](CN(C)C(=O)c2ccccc2)[C@H](C)CN([C@H](C)CO)C(=O)c2cc(NC(=O)Nc3ccccc3)ccc2O1,inactive: 0.988
16,C[C@H]1CN([C@@H](C)CO)C(=O)CCCn2cc(nn2)CO[C@H]1CN(C)C(=O)Nc1ccnc(N2CCOCC2)c1,inactive: 0.985
17,Clc1ccc(CSC(Cn2ccnc2)c2ccc(Cl)cc2Cl)cc1.O=[N+]([O-])O (stereo not drawn),inactive: 0.985
18,COCCOC(=O)N1C(=O)[C@@]2(c3cc(C#CC4=CCCCC4)ccc31)[C@H](c1ccc(OCCO)cc1)N1[C@H](c3ccccc3)[C@H](c3ccccc3)OC(=O)[C@H]1[C@@H]2C(=O)N1CCCCCCC1,inactive: 1.05
19,CCOC(=O)N1CCC(O)CC1,inactive: 0.992

row,SMILES,relative growth
1,CCS(=O)(=O)Nc1ccc2c(c1)C(=O)N(C)C[C@@H](OC)[C@@H](C)CN(CCC(F)(F)F)[C@@H](C)CO2,inactive: 1.02
2,Cc1ccc(S(=O)(=O)N(C)C[C@@H]2OCCCC[C@@H](C)Oc3ccc(NC(=O)c4ccccc4)cc3C(=O)N([C@@H](C)CO)C[C@H]2C)cc1,inactive: 0.991
3,Cc1noc(C)c1S(=O)(=O)Nc1ccc2c(c1)C(=O)N([C@H](C)CO)C[C@@H](C)[C@@H](CN(C)Cc1ccc(C(=O)O)cc1)O2,inactive: 1.02
4,COc1ccc(C#Cc2cnc3c(c2)C(=O)N([C@H](C)CO)C[C@@H](C)[C@@H](CN(C)C(=O)CC2CC2)O3)cc1,inactive: 0.997
5,C[C@@H]1CN([C@H](C)CO)C(=O)c2cc(C#Cc3cccnc3)cnc2O[C@@H]1CN(C)S(C)(=O)=O,inactive: 0.997
6,COc1ccc(NC(=O)N(C)C[C@H]2Oc3c(NC(=O)C4CCOCC4)cccc3C(=O)N([C@@H](C)CO)C[C@H]2C)cc1,inactive: 0.991
7,C[C@H]1CN([C@@H](C)CO)C(=O)Cc2cc(NC(=O)c3ccncc3)ccc2O[C@H]1CN(C)S(=O)(=O)c1ccc(Cl)cc1,inactive: 0.999
8,C=CCC[C@H](Cc1ccc(F)cc1)C(=O)OC[C@@H](NC(=O)[C@@H](CC=C)CC(=O)N(CCO)Cc1ccccc1)c1ccccc1,inactive: 1.1
9,COc1ccc(S(=O)(=O)N(C)C[C@H]2OCCCC[C@@H](C)Oc3ccc(NC(=O)CCC(F)(F)F)cc3C(=O)N([C@@H](C)CO)C[C@@H]2C)cc1,inactive: 1.01
10,COc1cccc(-c2cn(CC[C@@H]3CC[C@@H](NC(=O)CN(C)C)[C@@H](CO)O3)nn2)c1,inactive: 0.994
11,COc1ccccc1S(=O)(=O)N(C)C[C@H]1OCc2cnnn2CCCC(=O)N([C@@H](C)CO)C[C@@H]1C,inactive: 1.01
12,O=C(CN1CCOCC1)N[C@@H]1CC[C@@H](CCNC(=O)C2CCCCC2)O[C@@H]1CO,inactive: 1.02
13,Cc1noc(C)c1S(=O)(=O)Nc1ccc2c(c1)C(=O)N([C@@H](C)CO)C[C@@H](C)[C@H](CN(C)CC1CCCCC1)OCCCC[C@@H](C)O2,inactive: 1.02
14,N[C@@H](CCC(=O)N[C@@H](CCS[C@@H](CC(=O)O)C(=O)O)C(=O)NCC(=O)O)C(=O)O,inactive: 1.01
15,Cc1noc(C)c1NC(=O)N(C)C[C@@H]1OCCCC[C@@H](C)Oc2ccc(NC(=O)CCC(F)(F)F)cc2C(=O)N([C@H](C)CO)C[C@H]1C,inactive: 1.01
16,C[C@H]1CCCCO[C@@H](CN(C)S(=O)(=O)c2cccs2)[C@@H](C)CN([C@@H](C)CO)C(=O)c2cc(NC(=O)Nc3ccc4c(c3)OCO4)ccc2O1,inactive: 1.02
17,C[C@@H]1CN([C@@H](C)CO)C(=O)c2cc(NS(=O)(=O)c3ccc(F)cc3)ccc2O[C@@H](C)CCCCO[C@H]1CN(C)C(=O)NC1CCCCC1,inactive: 1.03
18,N[C@](CC1c2ccccc2Oc2ccccc21)(C(=O)O)[C@H]1C[C@@H]1C(=O)O,inactive: 1.01
19,COCC#Cc1ccc2c(c1)O[C@H](CN(C)C(=O)C1CCCCC1)[C@@H](C)CN([C@@H](C)CO)S2(=O)=O,inactive: 1.03
